Laboratory results as given in paper PMC4336329 (PLoS ONE, 2015).
In all, about 310,000 compounds went through this assay and about 14,000 (4.5%) showed an effect of 50% or more. The effect is printed as a negative number. Some of the results follow.

Biological target: human ether-à-go-go-related gene (hERG) potassium channel (human, UniProt Q12809)
Experiment: primary screen, population patch clamp on CHO cells stably expressing hERG
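Also: peak tail current of the secondary pulse compared with the same well before compound.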

Chain of human ether-à-go-go-related gene (hERG) potassium channel (Q12809 whole entry, looked up): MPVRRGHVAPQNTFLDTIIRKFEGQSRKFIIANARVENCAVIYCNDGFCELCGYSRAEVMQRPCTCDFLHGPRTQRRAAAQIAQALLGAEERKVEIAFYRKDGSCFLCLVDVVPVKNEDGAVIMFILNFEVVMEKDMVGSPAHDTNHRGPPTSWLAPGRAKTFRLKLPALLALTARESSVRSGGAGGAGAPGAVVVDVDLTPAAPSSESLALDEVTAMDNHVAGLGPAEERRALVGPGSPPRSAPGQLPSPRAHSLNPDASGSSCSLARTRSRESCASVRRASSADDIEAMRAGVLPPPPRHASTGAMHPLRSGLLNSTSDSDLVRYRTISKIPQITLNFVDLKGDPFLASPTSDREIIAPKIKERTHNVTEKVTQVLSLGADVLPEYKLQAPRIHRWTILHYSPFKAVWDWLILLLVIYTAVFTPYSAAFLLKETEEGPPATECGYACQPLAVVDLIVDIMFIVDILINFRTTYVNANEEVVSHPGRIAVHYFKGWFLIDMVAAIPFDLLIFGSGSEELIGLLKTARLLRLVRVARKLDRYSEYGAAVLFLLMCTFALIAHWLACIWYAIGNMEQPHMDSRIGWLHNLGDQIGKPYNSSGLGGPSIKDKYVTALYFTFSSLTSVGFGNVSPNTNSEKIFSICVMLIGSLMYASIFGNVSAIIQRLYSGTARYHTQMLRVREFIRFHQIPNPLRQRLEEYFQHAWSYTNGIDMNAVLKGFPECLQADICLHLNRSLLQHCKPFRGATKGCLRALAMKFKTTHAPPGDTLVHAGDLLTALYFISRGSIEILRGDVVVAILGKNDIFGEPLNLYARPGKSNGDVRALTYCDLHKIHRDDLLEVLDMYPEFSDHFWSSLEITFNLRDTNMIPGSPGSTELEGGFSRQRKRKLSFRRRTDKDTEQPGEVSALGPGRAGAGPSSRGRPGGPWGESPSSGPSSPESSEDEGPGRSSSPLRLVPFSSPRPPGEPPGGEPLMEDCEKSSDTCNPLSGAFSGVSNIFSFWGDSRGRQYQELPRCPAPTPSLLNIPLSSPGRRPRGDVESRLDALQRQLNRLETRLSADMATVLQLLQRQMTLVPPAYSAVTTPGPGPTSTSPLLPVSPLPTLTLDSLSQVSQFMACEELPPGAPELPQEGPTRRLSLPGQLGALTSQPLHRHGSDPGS

Structure (SMILES) | hERG current change (%, negative = inhibition) at 10uM
Clc1cccc(Nc2c3c(nc4ncnn24)CCC3)c1 | -23.6%
Cc1ccc(N2C(=O)CC(N3CCN(c4ccccn4)CC3)C2=O)cc1 (stereo not drawn) | -6.04%
Cc1cc(NC(=O)CSCC(=O)Nc2ccc(Cl)c(C(F)(F)F)c2)no1 | -12.6%
CC(=O)Cc1nsc(NC(=O)c2ccc(-c3cc(Cl)ccc3Cl)o2)n1 | 18.5%
Cc1ccc(-n2cc[nH]c2=S)c(C)c1 | 18.9%
O=C(Nc1ccc([N+](=O)[O-])cc1)Nc1ccc2c(c1)OCCO2 | 24.6%
CCOC(=O)c1ccc(NC(=S)N2CCCC(C)C2)cc1 (stereo not drawn) | -28.4%
COc1ccccc1OCC(=O)N(Cc1nc(-c2ccccc2)no1)C1CCCCC1 | 9.46%
Cc1cc(C)n(CC(O)Cn2cnc3c2c(=O)n(C)c(=O)n3C)n1 (stereo not drawn) | -8.95%
CC(=O)c1ccc(Cc2ccc(C(C)=O)cc2)cc1 | 6.02%
O=C(CCc1ccc(S(=O)(=O)NC2CCCCC2)cc1)N(Cc1ccccc1)Cc1ccccc1 | 5.41%
COc1cc(N=c2oc3c(C)ncc(CO)c3cc2C(N)=O)cc(OC)c1OC | -5.75%
COc1ccc(NC(=O)C(CC(C)C)NC(=O)C2CCCCC2)c(OC)c1 (stereo not drawn) | -3.27%
Cc1cc(C)c(OCC(O)CN2CCN(c3ccccn3)CC2)c(C)c1.Cl (stereo not drawn) | -58.3%
CCn1c(SCC(=O)NC2CCCCC2)nnc1-c1cccnc1 | 10.5%
Cc1cc(S(=O)(=O)NCC(c2ccc3c(c2)OCO3)N2CCOCC2)ccc1F (stereo not drawn) | -20.7%
COCn1c(-c2cccc(Br)c2)nc2ccccc21 | -37.6%
COc1cc(NC(=O)c2cc(-c3cccc(O)c3)on2)cc(OC)c1OC | -9.97%
CSc1nc(C)c(CCOC(=O)c2cccc(C)c2)c(=O)[nH]1 | 26.9%

Structure (SMILES) | hERG current change (%, negative = inhibition) at 10uM
O=C1/C(=C\c2ccc(Br)cc2)SC(=S)N1NS(=O)(=O)c1ccccc1 | 20.2%
COc1ccc(CC(=O)N(C)C2CCCN(Cc3ccccc3F)C2)cc1OC (stereo not drawn) | -4.9%
CC(C)(C)c1ccc2c(c1)OC(C(=O)N/N=C\c1ccc(-c3cccc(C(=O)O)c3)o1)CO2 (stereo not drawn) | -4.89%
CC1(C)CC(=O)C(C2C3=C(CC(C)(C)CC3=O)Oc3ccccc32)=C(O)C1 (stereo not drawn) | 14.2%
CN(Cc1cccs1)C(=O)c1cccc(S(=O)(=O)N2CCCCCC2)c1 | -59.9%
COc1cc(SC)ccc1C(=O)Nc1ccc2c(c1)OCCO2 | -18.4%
COc1cccc(CN(C(=O)c2cccc(OC)c2)C2CCS(=O)(=O)C2)c1 (stereo not drawn) | -7.02%
CN(CC(=O)Nc1ccccc1Br)C(=O)CCc1nc2ccccc2c(=O)[nH]1 | -15.8%
CCCCCOC(=O)C1=C(C)NC(=O)NC1c1ccc([N+](=O)[O-])cc1 (stereo not drawn) | 13%
N#CCCCSc1ncccc1-c1nc2ccccc2[nH]1 | -17.7%
N#Cc1ccc(C2N=C(c3ccccc3)NO2)cc1 (stereo not drawn) | -1.1%
Cc1cc(C)nc(NS(=O)(=O)c2ccc(NC(=O)COc3ccccc3F)cc2)n1 | 4.9%
Nc1nsnc1C(=O)NCCO | 14.7%
CCOC(=O)c1ccc(S(=O)(=O)N2CCN(C(C)=O)CC2)cc1 | 0.122%
COc1cccc(CNC(=O)c2cccc(NC(=O)CC3SC(N4CCCCC4)=NC3=O)c2)c1 (stereo not drawn) | -1.28%
N#Cc1c(N2CCCC2)nc(N)c2c(N)nc(N3CCCC3)cc12 | 11.2%
Cc1ccc(C(=O)O/N=C(\N)Cc2ccc([N+](=O)[O-])cc2)c(Cl)c1 | -46.3%
CN(C)c1ccc2c(c1)OC(N)=C(C#N)C2c1cccc(F)c1 (stereo not drawn) | 6.95%
COc1ccc(N/N=C(/Oc2ccc([N+](=O)[O-])cc2)C(C)=O)cc1 | -12.7%

Structure (SMILES) | hERG current change (%, negative = inhibition) at 10uM
O=C(O)CSCC(=O)N1CCCN(c2ccc(C(F)(F)F)cn2)CC1 | 22.9%
COc1ccc(CNC2c3ccccc3-c3ccccc32)cc1OC | -36.2%
O=[N+]([O-])c1cccc(-c2cc3ccccc3[nH]2)c1 | 18.7%
Cc1ccc([N+](=O)[O-])c(OCC(O)CNC(C)(C)C)c1.Cl (stereo not drawn) | 3.01%
O=C(/C=C/c1ccco1)NCc1ccco1 | 18.5%
N#Cc1ccc(/C=C(\C(=O)C(=O)O)c2ccc3ccccc3n2)cc1 | -7.34%
O=C(/C=C/N1CCOCC1)c1coc2ccccc12 | 1.11%
Cc1ccc(NC(=O)CN2C(=O)C3CC=CCC3C2=O)cc1S(=O)(=O)N1CCOCC1 (stereo not drawn) | 5.84%
CCn1cc(CNC(=O)c2cc(COc3ccc(F)cc3Cl)on2)cn1 | -11.1%
COc1cccc(N2CCN(C3CC(=O)N(c4ccc(F)c(Cl)c4)C3=O)CC2)c1 (stereo not drawn) | -12.6%
Cc1ccccc1OCC(=O)OCC(=O)NCc1ccccc1 | 8.83%
O=C(C1CC(c2ccccc2O)=NO1)N1CCCCC1 (stereo not drawn) | 12.6%
Cc1ccc(C(=O)Nn2cnnc2)cc1 | 10.8%
COc1ccc(NC(=O)C2CCCN(S(=O)(=O)c3ccc4[nH]c(=O)ccc4c3)C2)cc1OC (stereo not drawn) | 16.6%
COc1ccc(CCNC(=O)Cn2cccc2C(=O)c2ccccc2C)cc1OC | -16.3%
Cc1c(O)nc(SC2CC(=O)N(c3cc(Cl)cc(Cl)c3)C2=O)[nH]c1=O (stereo not drawn) | 17%
COc1cc(C2SCC(=O)N2Cc2ccccc2)ccc1O (stereo not drawn) | 1.41%
O=C1CCCC/C1=C/NCc1ccccc1 | 16.7%
O=C(C1CCC(CNS(=O)(=O)c2ccccc2)CC1)N1CCCCC1 (stereo not drawn) | -1.89%
